# From PMC10668032
# Some of the results follow. At the low end of the ranking, values are background and their order means little.
# Target: SIX1-Q177R homeodomain (UniProt Q15475)
# Assay: universal protein binding microarray
# Details: Universal all-10-mer PBM (8x60K, AMADID 030236), 300 nM GST-tagged protein, Alexa Fluor 488 anti-GST; buffer, salt, pH and temperature not stated; high values mean tight binding; most listed sequences are background and not binding sites; double strand, one strand shown
row,Sequence,binding signal [E-score]
1,ACGGTCAC,-0.0158
2,CAGTTACA,-0.00257
3,AGTCGAGA,-0.0567
4,CTTTATGA,-0.0999
5,AACAATGG,-0.0219
6,GGGGATAC,0.254
7,CAGCCGCA,-0.266
8,AGCTACAA,-0.0921
9,CACCTAAG,0.263
10,ACCAGGCG,0.143
11,CGGTTCAA,-0.034
12,CGTAGTTC,-0.174
13,CGGAAGAC,0.129
14,CTATTTAC,0.174
15,AAGGCGTG,0.0573
16,ATGCCAGA,-0.143
17,CCTTTCTA,0.0895
18,CGCCTAAG,-0.217
19,AAGTAATT,-0.29
20,GTCCGAGA,-0.181
21,CACTCGGA,0.177
22,ATAACTGA,-0.0851

row,Sequence,binding signal [E-score]
1,ACGGTAAA,-0.194
2,AATACTTA,-0.0981
3,AGATTGCG,-0.283
4,GAAAAAGA,-0.122
5,GTAATCTA,-0.012
6,GTCGTCCA,-0.107
7,TTGCCCAA,-0.0843
8,ACCCTTCT,0.113
9,ATCGTACG,-0.147
10,ATCCGTGG,-0.00125
11,CCATCCAA,0.0652
12,CGATGAGC,-0.0951
13,CAAAGCTA,-0.187
14,ACCGTTTC,0.00664
15,TCTAGGAA,-0.223
16,GACGTAGC,-0.0396
17,CATTTAGA,-0.114
18,GCCCATCA,-0.117
19,GCCTACGC,0.167
20,ATGGGCAA,-0.201
21,GACTGTCC,-0.0035
22,GGTGTAAA,0.476

row,Sequence,binding signal [E-score]
1,CGTTAATA,-0.0109
2,TCGGCCCA,-0.114
3,CTATCTTC,-0.212
4,GCTGCACC,0.13
5,CTTCCAAA,-0.183
6,CTCTATAA,-0.193
7,GAGCTATC,-0.2
8,ATTTTACA,0.19
9,AATATTCT,-0.0368
10,AGCAGACG,-0.306
11,GCAGTCCA,-0.206
12,TTCATAAA,-0.23
13,CCTCTGCA,-0.0751
14,ACCTGTGA,0.0256
15,ACCTAATG,0.00106
16,GTGATATA,-0.00231
17,CCGGCCCA,-0.121
18,GGGCGACC,-0.17
19,GGCTATGA,-0.269
20,TTAGATAA,-0.133
21,ACCGCGCG,-0.00263
22,ATAACGCA,-0.176

row,Sequence,binding signal [E-score]
1,ACTTTCAG,0.0215
2,AAAGTCGG,-0.207
3,AACCCCCA,0.209
4,AGCATTGG,-0.0979
5,CCGTATGC,0.0157
6,GCCTTTGA,-0.0366
7,CTACTCAA,0.0598
8,AGACGATA,-0.0676
9,CATGTTTA,0.00291
10,CAGGATAG,-0.0461
11,ATGTACCG,-0.0954
12,TGCCGACA,0.177
13,CCTTATGA,0.0555
14,AATGGTCG,-0.177
15,TCTTTAAA,-0.277
16,CAGTGGCA,-0.16
17,ACCCTCCG,0.271
18,CCGGAGGA,-0.0309
19,AGTCAAAG,-0.138
20,GAGGCCTC,-0.227
